Measured values from the BET-seq Pho4 binding data (Le et al. 2018).
Some of the results follow. These are noisy estimates, calculated here from bound and input reads.

What follows are sequences tested against T1, Pho4 (S. cerevisiae) (UniProt P07270) (assay: relative binding free energy (BET-seq); higher = weaker binding). Conditions: reference: library average.
T1 sequence: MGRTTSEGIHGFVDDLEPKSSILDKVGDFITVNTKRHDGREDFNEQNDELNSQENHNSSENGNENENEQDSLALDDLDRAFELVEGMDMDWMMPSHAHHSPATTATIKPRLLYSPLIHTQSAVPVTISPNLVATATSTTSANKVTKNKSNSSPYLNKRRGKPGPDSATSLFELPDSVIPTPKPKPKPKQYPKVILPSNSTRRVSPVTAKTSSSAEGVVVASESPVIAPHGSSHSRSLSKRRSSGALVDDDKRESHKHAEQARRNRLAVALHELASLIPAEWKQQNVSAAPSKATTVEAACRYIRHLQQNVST

Sequence | relative binding free energy [kcal/mol]
ATCTGCACGTGATGGT | -0.03
GGGGCCACGTGTTGTG | -0.08
CTTTCCACGTGTTGGG | 0.19
TATTACACGTGGTTAG | 0.04
TGTGTCACGTGGTACT | 0
ATCTGCACGTGAGTTG | 0.2
AAAGGCACGTGGAGGC | -0.02
GTTGGCACGTGAATGC | 0.16
GTAGTCACGTGTTGAA | 0.14
TGTTTCACGTGTGAAG | 0.37
TATTGCACGTGAACGT | -0.01
ACTGGCACGTGGTGGA | -0.1
GGGTTCACGTGAGAGG | 0.5
TTAGGCACGTGGGAGA | -0.17
AACGACACGTGGGGTA | 0.02
TTCGTCACGTGTTATT | 0.06
TAAGGCACGTGTTAGT | -0.1
GTATTCACGTGTCGCT | 0.27
CGTATCACGTGGAGCG | 0.05

Sequence | relative binding free energy [kcal/mol]
ATTCACACGTGGGCGG | -0.12
GTTATCACGTGTGAAT | 0.36
ATTGTCACGTGTATAC | 0.03
AAGGGCACGTGTGTCT | -0.1
GGAATCACGTGCGGGC | 0.16
GAGTGCACGTGTAGGG | 0.05
TCGGGCACGTGTCGGT | 0.05
TAGAGCACGTGAGGTT | 0.13
ATAGTCACGTGGTTAC | 0.02
GGTCTCACGTGGTAGG | 0.13
CGTGTCACGTGAGGGT | 0.24
TAATTCACGTGAGCTT | 0.25
GACGTCACGTGGATTG | 0.27
TGGTACACGTGTACAG | 0.02
ATGGGCACGTGGATGC | -0.09
GGGTGCACGTGCAGGT | -0.05
GGATTCACGTGTAAGC | 0.46
CTGGTCACGTGTTAAT | -0.03
GTTTTCACGTGAGATA | 0.43

Sequence | relative binding free energy [kcal/mol]
ATCTTCACGTGAGTTG | 0.23
GGTGGCACGTGGCGTT | -0.05
ACGTTCACGTGTTTAG | 0.14
AGATTCACGTGAGGGA | 0.35
TGTTACACGTGGCGAT | -0.08
TGTGTCACGTGCGAGA | 0.03
CTGGTCACGTGCTTAG | 0.11
GGGTCCACGTGGGCAG | -0.13
AGTTACACGTGGGGTC | -0.01
ATGTGCACGTGCATAT | -0.14
CTTGACACGTGTGGGC | 0.18
GTGCGCACGTGTCGGG | -0.11
GGAGGCACGTGTGGCT | 0.01
AGATTCACGTGAGGGT | 0.35
GTAGTCACGTGATCTT | 0.22
GTATTCACGTGGCATT | 0.07
TATTGCACGTGGGTTG | -0.12
TAGCTCACGTGTGCGT | 0.14
TGACGCACGTGAATGG | 0.22
